PubChem BioAssay AID1814 (Broad Institute, 2009)
About 22,000 (7.3%) of roughly 300,000 compounds were called active. Inconclusive means that the source gave no clear call. Such entries were picked first, then a sample of the others. Rule as the data show it: active = activity score below about -60%; inconclusive = mostly about -28% to -61%; inactive = positive scores.

test: Activators via SNCA 5'UTR binding, MLPCN (AID 1814); conditions: alpha-synuclein 5'UTR reporter, activators screen; hits give low values; tested at 7.5 µM

Activity score, active:
O=[N+]([O-])c1cccc(-c2nnc(-c3ccccc3F)o2)c1 -162%, ClC(=C\c1ccccc1)/C=N/N1CCN(c2ccccn2)CC1 -222%, COCCCNC(=S)N/N=C/c1ccc(N(C)C)cc1Cl -107%, CC(C)(C)c1ccc(C(=O)Nc2cccc(-n3cnnn3)c2)cc1 -84.8%, CC(=O)Nc1nc2cc3c(cc2s1)OCO3 -99.8%, C=C(C)C1Cc2cc3ccc(=O)oc3cc2O1 (stereo unspecified) -65.1%, CN(C)c1ccc(/C=C/C(=O)c2ccccc2O)cc1 -197%, COc1cccc(NC(=O)c2cc(=O)c3ccccc3o2)c1 -72.2%, Cc1nc(Nc2ccccc2)sc1C -112%, O=C(NC1=NCCS1)c1cccc(Br)c1 -74.7%, COc1cc(/C=N/N2CCOCC2)ccc1OCc1ccccc1 -107%, O=S(=O)(/N=C(/Nc1ccccc1)c1ccccc1O)c1ccccc1 -79.1%, Cc1ccc(NC(=O)c2cccc(C(=O)OC(C)C)n2)c(Br)c1 -73%, CCOc1ccc(NS(=O)(=O)c2ccc(C)c(C(N)=O)c2)cc1 -72.9%, Clc1ccccc1-c1nnc(-c2cccnc2)o1 -139%

Activity score, inconclusive:
CCN(CC(=O)NC(C)(C)C)C(=O)C(c1ccccc1)c1ccccc1 -50.5%, CC1CCN(Cc2c(O)ccc3c(=O)c(-c4nc5ccccc5s4)c(N)oc23)CC1 -62.2%, N/C(CN1CCCC1=O)=N\OC(=O)c1ccccc1Cl -53.4%, O=C(Nc1ccc(Br)c(C(F)(F)F)c1)c1ccc(C(F)(F)F)cc1 -60.7%, COc1ccccc1CNC(=O)/C=C/c1ccc(S(=O)(=O)NCc2ccco2)cc1 -43.3%, CCOC(=O)c1c(C)[nH]c(-c2csc(C)n2)c1C -60.5%, COc1cc(SC)ccc1C(=O)Nc1ccc2ncccc2c1 -56.8%, COc1cc(NC(=O)COC(=O)/C=C/c2ccccc2Cl)cc(OC)c1 -52%, CCCC1Oc2ccccc2C(=O)N(CC(=O)c2ccc3c(c2)OCCO3)C1=O (stereo unspecified) -55.3%, O=C(Nc1ccccc1)C(=O)c1c[nH]c2ccccc12 -53.6%, Nc1c(Cl)ncnc1N/N=C/c1cccc(O)c1 -50.3%, CNS(=O)(=O)c1ccc(NCC2COc3ccccc3O2)c([N+](=O)[O-])c1 (stereo unspecified) -42.2%, CN(C1=C(NC(=O)c2ccccc2)C(=O)c2ccccc2C1=O)C1CCS(=O)(=O)C1 (stereo unspecified) -59.4%, Cc1nc(NC(=O)c2ccccc2)sc1C1(C)CC(c2ccccc2F)=NO1 (stereo unspecified) -58.5%, Cc1ccc(NN2C(=O)C=C(c3ccc(Cl)cc3)C2=O)cc1 -48.6%, O=c1ccccn1CCOc1ccccc1Cl -46.9%, CC(C)(C)c1ccc(/C=C/C(=O)NC2=NCCS2)cc1 -58.9%, CC(C)(C)C(=O)Nc1sc2c(c1-c1nc3ccccc3[nH]1)CCCC2 -34.4%, Cc1cc(Sc2nc(N(C)C)nc(N(C)C)n2)nc(Cl)n1 -58.7%, O=C(Nc1ccc(N2CCOCC2)c(Cl)c1)c1cccnc1 -61.2%, CCC(C)(C)NC(=O)C(c1ccccn1)N(C(=O)c1csnn1)c1ccc(C)c(C)c1 (stereo unspecified) -50.9%, Cc1ccc(-c2cnc(-c3ccccc3C(=O)O)o2)cc1 -48.5%, CNS(=O)(=O)c1cccc(C(=O)OCC(=O)c2cc(C)n(-c3ccc4c(c3)OCO4)c2C)c1 -59.4%, CC(CCc1ccco1)NC(=O)CCc1nnc2ccc(NCc3ccc(Cl)cc3)nn12 (stereo unspecified) -38%, O=C(NCCCN1CCOCC1)c1ccc(/C=C2\Oc3ccccc3N(Cc3ccccc3F)C2=O)cc1 -40.2%, O=C(c1cccc(-c2nnc(-c3ccccc3)o2)c1)N1CCCCCC1 -57%, O=C(CCCCCn1c(=S)[nH]c2ccc(N3CCOCC3)cc2c1=O)NC1CCN(Cc2ccccc2)CC1 -53%, N/C(=N\OC(=O)c1ccc2ccccc2c1)c1ccncc1 -49.3%, COc1ccc2c(c1)c1ncn(CCc3ccccc3)c(=O)c1n2C -51.7%, CN1CCN(c2nc(NCCOC34CC5CC(CC(C5)C3)C4)nc(OCC(F)(F)F)n2)CC1 -36.8%, CC(C)n1cc(/C=N/NC(=O)COc2cccc3cccnc23)c2ccccc21 -36.5%, Cc1sc(C(=O)Nc2ccc3ccccc3c2)cc1CC(=O)O -32.5%, COc1ccc(S(=O)(=O)Nc2cccc(-c3ccc(N4CCCCCC4)nn3)c2)cc1OC -52.6%, COc1cccc(-c2cc3c(-n4cccc4)ncnc3o2)c1 -44.5%, Cc1ccc(C2C(C(=O)c3cccs3)=C(O)C(=O)N2c2ccc(S(N)(=O)=O)cc2)cc1 (stereo unspecified) -52.5%, CC(C)Cc1cc(C(=O)N2CCN(c3ccc(F)cc3)CC2)no1 -41.4%, O=C(Nc1ccccc1[N+](=O)[O-])c1cncc(Br)c1 -37.6%, CN(Cc1ccco1)S(=O)(=O)c1nnc(NC(=O)c2cccc(Cl)c2)s1 -54.2%, C=CCOc1ccccc1CNc1cccc(F)c1 -48.5%, CN(CC(=O)Nc1cccc(F)c1)C(=O)CCNC(=O)c1ccc(Br)cc1 -60.1%, Cc1c(C(=O)NCCN2CCOCC2)sc2nc(-c3ccc(F)cc3)cn12 -39.7%, CC(C)[C@H](NC(=O)c1ccccc1Cl)C(=O)NC1CCCCCC1 -39%, COc1cccc(C2=NNC(=NCc3ccccc3)SC2)c1 -57.8%, CC(C)(C)OC(=O)COc1cc(O)c2c(=O)cc(-c3ccccc3)oc2c1 -48.6%, COCCn1c(SCC(=O)c2cc(C)n(C)c2C)nc2ccccc2c1=O -39.3%, Cc1cc(NC(=O)Nc2cccc([N+](=O)[O-])c2)no1 -49.7%, CCOC(=O)c1ccc(NC(=O)CN2C(=O)NC3(CCC(C)CC3)C2=O)cc1 (stereo unspecified) -56.1%

Activity score, inactive:
Nc1c(S(=O)(=O)c2cccc(Cl)c2)c2nc3ccccc3nc2n1/N=C/c1ccc(O)c(O)c1 88.8%, Cc1cccc2cc3c(N)c(C#N)sc3nc12 83.5%, O=c1c2ccccc2cnn1-c1nc2ccccc2[nH]1 97.8%, O=[N+]([O-])c1ccc(O)c(-c2cc(C(F)(F)F)nc(-c3ccccc3)n2)c1 90.1%, N#Cc1c(N)n(C2CCCCC2)c2nc3ccccc3nc12 62.2%, COC(=O)c1ccc(CSc2ccc3nnc(-c4ccccc4)n3n2)o1 53.7%, CCc1ccc(/C=C2\SC(=S)N(CCCC(=O)Nc3ccccn3)C2=O)cc1 72.6%, Cc1cc(C(=O)OCC(=O)NCc2ccco2)c(C)n1-c1ccc(F)cc1 80.4%, COc1ccccc1-c1cc(C(=O)Nc2cccnc2)no1 54.7%, Cc1[nH]n(-c2ccccc2)c(=O)c1N=Nc1c(O)cc(S(=O)(=O)N(C)C)c2ccccc12 70.7%, CCN1/C(=C/C=C/c2oc3ccc(-c4ccccc4)cc3[n+]2CC)Oc2ccc(-c3ccccc3)cc21 140%, COc1cccc(/C=N/NC(=O)c2c(C)nc3ccc(Br)cn23)c1O 71%, CCN1CCCC1CNC(=O)c1ccc2c(c1)NC(=O)/C(=C\c1ccc(C)cc1)S2 (stereo unspecified) 74.1%, Cc1c(CCC(=O)O)c(=O)oc2cc3oc4c(c3cc12)CCCC4 68%, COc1cc(OC)cc(C(=O)NNC(=O)c2ccccn2)c1 72.7%, COc1cc(-c2noc(C)c2/C=C/c2ccc(N)cc2)cc(OC)c1OC 104%, Cc1c(NC(=O)/C(C#N)=C/c2ccc(-c3ccccc3Cl)o2)c(=O)n(-c2ccccc2)n1C 56%, CCOc1cccc2sc(N(CCCN(C)C)C(=O)c3ccc(S(=O)(=O)N(C)Cc4ccccc4)cc3)nc12 55.9%, OCCN(CC#CCn1c2ccccc2c2ccccc21)CCO 43.3%, CC(=O)Nc1ccc(Nc2nc(-c3c(C)nc4ccccn34)cs2)cc1 86.6%, CC(C)(C)c1cc(Cl)c(O)c(NC(=S)NC(=O)c2cccnc2)c1 79.6%, Cc1cc(C(=O)N/N=C/c2cc(Br)cc(Br)c2OC(=O)c2ccccc2)n[nH]1 89.3%, CCC(=NCCc1c(C)[nH]c2ccc(OC(F)(F)F)cc12)C1=C(O)CC(c2ccccc2)CC1=O (stereo unspecified) 107%, Cc1ccc2nc(NC(=O)c3ccco3)sc2c1 85.2%, O=C1c2ccccc2C(=O)c2c1oc(C(F)(F)F)c2C(=O)c1ccccc1 101%, O=C(N/N=C/c1c(O)ccc2ccccc12)c1ccc(Br)o1 106%, COc1cc(C(=O)N/N=C/C2CC=CCC2)cc(OC)c1OC (stereo unspecified) 108%, Oc1c(CN2CCN(c3ccccn3)CC2)cc(Cl)c2cccnc12 92.4%, O=C(Nc1cccc(-c2ccc(N3CCCCC3)nn2)c1)C(F)(F)F 96.2%
